Earlier results on one molecule are cited in patent publication US8691290B2 (priority 2006, dated 2014).

This data set relates to S. aureus. As to conditions: in vivo.

In the case of `C/C(=C\C(=O)OCCCCCCCCC(=O)O)C[C@@H]1OC[C@H](C[C@@H]2O[C@H]2[C@@H](C)[C@H](C)O)[C@@H](O)[C@H]1O` [mupirocin], the “reduction of the rate of nosocomial S. aureus infection” value is listed as 50%.
